Read counts are not given, so values of variants with three or more changes are uncertain.
B1: OR4K15 (parent)
chain: GUUAACGGUCAUAGGCCAUGGAAACUAGGAGCACCAUUUCGCUGCCAGUGAAGAAAUGAACAAAGAAAAUCUGGGCCAGGCAGGCAUCAAAAGAAAUAGUCUUGCGCUCAACCAGAAAGUCUGUAAUCAUUUUAAGGGUA

Variants of: B1
Assay: self-cleavage, relative activity (ratio to wild type); higher = more cleavage; in vitro, sequencing; the parent is a self-cleaving ribozyme

Variant	self-cleavage
A111G U131G A135G	0.01
A110G U122C U130C	0.08
G106C A117G A118U U122A U127C A135G	0
A114U A118G U131C	0.02
U120C U122G U131C	1.96
A116G A117U U132C	0.11
A111G A118G A126G	0.01
U103C G104A A116G	0
A116G U122G U132C	0.62
U108C A117G A125G A129G A134U	0
A111G A118G U127A	0
C105U G115U A117U	0.01
U122C A126U A135U	0.36
A111G G136U A140G	0.01
A118G A135G A140G	1.55
A118G U124C U130G	0.44
A111G U124C A125G	0
A117U C121U U122C	1.02
G106A U130A U131C	0.01
A116G U120C U131C	0.3
U108G A110C A118G U124C	0

Variant	self-cleavage
U103C A126U U132C	0.8
C105G U124A U131C	0.01
A125G U127C A129G	0.19
C105U U108C A135G	0.01
A129C U132A A135U	1.56
U108A A114U A135G	0
U103C A117G U132C	1.14
U108C A110C A129G	0
A126G U127C U132C	0.22
A111G U122C U124A	0
A110G A118G U131C	0.03
A126G U130C U131C	1.05
U120A U131C U132C	1.19
A110G A125G A126U A135G	0.13
U103C G104A A118G A126G U127C	0
G104A U122G U133C	0.05
A116G U132C U133C	0.38
A110G A117G C128U	0.18
A114C A116G U120C	0.02
U103C A116G G137A	0.19
A118G U120C U132C A140G	0.17

Variant	self-cleavage
A118G C128U A129G	0.04
C113G U139C A140G	0.04
U103C U124A U132C	0.47
U127C U130C G137A	0.59
G104A U108C A111G	0.02
U120C U124A A125G	0.75
U120C U132C A135U	0.9
C113U A116G U122A A140G	0
A114U U131C A140G	0.01
A111G A118G U130C	0.01
A116G U124A U130C U139C	0.45
A116G A134U A135G	0.87
U103C U108C A117G U131C	0
A110G A116G A117G	0.06
A118G U122C U131A	0.94
A111G U124C U132C	0.01
A114U U127C U131G	0.01
A114U A129G U131A	0.03
U108A A116U U131C	0
A111G U120C U139C	0
C107G A116G U131C G138A	0
